# In PubChem BioAssay AID492948 (National Center for Advancing Translational Sciences (NCATS), 2010):
# Inconclusive results, whose numbers are uncertain, are shown with a selection of clear calls. Potencies of inconclusive entries are left out as doubtful fits. Active and inactive are the calls of the source. The call rests on the fitted dose curve; in most records, active means well fitted activation curve with a large enough effect; inconclusive means small, poorly fitted or top-dose-only effect; inactive means no such curve, though single readings can be large or run the other way.
# Assay: qHTS Assay for Agonists of the Relaxin Receptor RXFP1: V1B Hit Validation;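 further: counter-screen in HEK293 cells expressing V1B rather than RXFP1 for selectivity; nearly all actives have a fitted effect of over 65% in size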
# Conditions: HEK293 V1B cells, cAMP TR-FRET, 30 min; series mostly up to 115 µM
# In short: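 HEK293 cells (2000/well) were exposed to compounds for 30 min at 37C with PDE4 inhibitor Ro 20174. cAMP was read by TR-FRET after lysis, normalized to buffer and 29 nM porcine relaxin, and EC50 was fitted by Hill equation.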
# Potency means the concentration at half of the fitted maximal effect; tags describe the fitted curve by direction and shape.
row,Compound,Potency
1,Cn1c([N+](=O)[O-])cnc1N1CCN(c2nncs2)C1=O,"inconclusive [activator, partial curve]"
2,O=C1CCCN1CCCNc1ccc2nnc(CCC(=O)N3CCN(c4ccccc4)CC3)n2n1,"inconclusive [activator, partial curve]"
3,CCN(CC)S(=O)(=O)c1cccc(N=Nc2c(O)c3ccccc3oc2=O)c1,active: 27.5 µM
4,O=C(O)c1cc(-c2ccco2)nc2ccc(Br)cc12,active: 19.4 µM
5,C=CCNC(=O)NC(=O)COC(=O)c1nc2nccc(C)n2n1,"inconclusive [activator, partial curve]"
6,Cn1c(=O)c2c(ncn2CCC(=O)N/N=C/c2cccnc2)n(C)c1=O,"inconclusive [activator, partial curve]"
7,Cn1c(=O)c(C(=O)COc2ccc(C#N)cc2)c(N)n(Cc2ccccc2)c1=O,"inconclusive [activator, partial curve]"
8,Cc1ccc(Cl)cc1NC(=O)CCCN1C(=O)c2cccnc2C1=O,"inconclusive [activator, partial curve, poor fit]"
